In the RNAGym collection of RNA variant scans (doi:10.7554/elife.90254):
The source gives no read counts; variants with many changes may rest on few reads.

B1: LINE1-full (parent)
chain: UACGUAGGUGGUUUUCCCCUGAUAGUGCUAAGGGGGCCUGGAAGUUUGGACUGGGCAGAGCUCAACACAGCGUGGCAAAGUGGCUGUGGCUAGACUGCCUCUCUGGAUUCCUCGUCACUCAGCAGGGCAUCUCUGAGAGAAAUGCC

Variants of: B1
Experiment: self-cleavage, relative activity (ratio to wild type); higher = more cleavage; in vitro, sequencing; the parent is a self-cleaving ribozyme
U14C A43U U47A G74A U100A showed a self-cleavage of 0.5.
Variant U14C U47A U73A has a self-cleavage of 0.73.
G36A A77U U115C A117U A124U gave a self-cleavage of 1.21.
With G34A U47A U73A C84U A124U the self-cleavage was 0.07.
In the case of U62C C66U U100C, the self-cleavage is reported as 0.11.
For A59U A92G U112A, the self-cleavage was 0.
Work on U26C U130C A136U yielded a self-cleavage of 0.95.
With A24G G60C A92U U132A the self-cleavage was 0.12.
Variant U15A A31U U46C U62C U119C A129U has a self-cleavage of 0.1.
For U13C A64G A124G, the self-cleavage was 0.
A43G U96C G106U gave a self-cleavage of 0.03.
With U47A U52C G105A the self-cleavage was 1.15.
In the case of U13G U81C U132A, the self-cleavage is reported as 1.23.
U52A C116A A138G A141G gave a self-cleavage of 0.64.
In the case of A31G A79G U115C, the self-cleavage is reported as 1.77.
In the case of U20A A24C A69G A141G, the self-cleavage is reported as 0.56.
Variant G11U C28A A77G has a self-cleavage of 1.15.
In the case of G74A A78U U108C, the self-cleavage is reported as 2.78.
In the case of U5C U20C U81A, the self-cleavage is reported as 0.75.
With A30G U52A A64U U73C the self-cleavage was 0.69.
In the case of U13G A78G A136G, the self-cleavage is reported as 1.68.
U14C A42G U62C U96G gave a self-cleavage of 0.
Variant U26C A57U U73A U100C has a self-cleavage of 0.29.
In the case of U9C U39C G105A, the self-cleavage is reported as 0.9.
Variant G55A A65G U102A has a self-cleavage of 0.03.
Variant U45C U96C C111U has a self-cleavage of 0.19.
U45C A77G A78U U87C U112A A117U gave a self-cleavage of 0.25.
Variant U62C U85C U104C has a self-cleavage of 0.
For A50U A117U A129G, the self-cleavage was 1.19.
U20C U45G A124G C146U gave a self-cleavage of 0.75.
U12C U15C U47A A92G U102C showed a self-cleavage of 0.
A22G A94U A138G G144A gave a self-cleavage of 0.35.
A79G U96C U132C showed a self-cleavage of 0.
For U12G U39C U91C A136G, the self-cleavage was 0.
Work on A6G U26C A65G U143C yielded a self-cleavage of 0.71.
For A6U U26C U73A, the self-cleavage was 1.69.
With A43G G54A U100A the self-cleavage was 0.07.
Work on U13C U14C U109C yielded a self-cleavage of 0.61.
G7A U102C U143G gave a self-cleavage of 2.76.
Variant A59G U130A A136G has a self-cleavage of 0.26.
For A6G U85A C99A C101U U143C, the self-cleavage was 0.18.
U62A A121U C123U U143A showed a self-cleavage of 0.04.
A43U G74U U96A A117C U134C gave a self-cleavage of 0.06.
A6U A24G A64C showed a self-cleavage of 0.36.
U5A U39A U45C A78G U96C showed a self-cleavage of 0.
Work on A2G U5C U109C yielded a self-cleavage of 0.46.
Work on U73A A92G U96C yielded a self-cleavage of 0.15.
U47C A77G A78G U109A gave a self-cleavage of 0.
In the case of A64U U96A U119C U130C A140G, the self-cleavage is reported as 0.
Work on A57U A92G A107G U115A A129G yielded a self-cleavage of 0.
Variant U45C A79G C90U A107G U112A C133U has a self-cleavage of 0.07.
Work on U39A A65G U119C yielded a self-cleavage of 0.12.
Work on A2G U73A C76U yielded a self-cleavage of 1.89.
G49A A136G U143C gave a self-cleavage of 1.08.
In the case of A22G A57U C99G, the self-cleavage is reported as 0.14.
Work on A22G C120U A124G U130C yielded a self-cleavage of 0.98.
Work on U5C A69G U102C yielded a self-cleavage of 0.42.
U15A U108A A142G showed a self-cleavage of 0.37.
In the case of U12C U39C A43G A67C A77U U85A, the self-cleavage is reported as 0.42.
For G34U A43G A65G G88A U112C, the self-cleavage was 0.03.
Work on U12C U14C A107G A138G yielded a self-cleavage of 1.59.
In the case of A67G A94U U119C U130C, the self-cleavage is reported as 0.46.
Work on U14C U26A G48U G88A U100C yielded a self-cleavage of 0.
Work on C16U A50G U112C yielded a self-cleavage of 1.02.
Work on A64C A65U A141G yielded a self-cleavage of 0.05.
For A64G A117U U132C U143C, the self-cleavage was 0.13.
Work on U12G U109A U134C yielded a self-cleavage of 2.83.
For U15C U39C U52A A67G, the self-cleavage was 0.99.
With U47C U108C U130C the self-cleavage was 2.51.
For U12C U14A G93A, the self-cleavage was 0.12.
U1C A24G A138G showed a self-cleavage of 1.13.
Variant A2G U12C G41A U62C has a self-cleavage of 0.17.
Variant C98G U115C U119C has a self-cleavage of 0.5.
G34A U102C U119A U143C gave a self-cleavage of 1.39.
Variant U85C C95U G122U has a self-cleavage of 0.02.
Work on G74A G88A A117G A129G yielded a self-cleavage of 0.03.
Work on U9A U46A U132C A142G yielded a self-cleavage of 1.33.
In the case of U9G G60C U85A, the self-cleavage is reported as 0.08.
Work on A22G U62A A94U yielded a self-cleavage of 0.03.
Work on U47A U85A G114A yielded a self-cleavage of 0.07.
Work on A79G U91A U132C yielded a self-cleavage of 0.19.
U14C G34U A69G A138G gave a self-cleavage of 0.97.
U15C U39A C51U G53A showed a self-cleavage of 1.45.
